This passage reports EC50 results from patent publication US9650358B2 (priority 2013, dated 2017).

The subject of this assay is H929 cells. The assay can be described thus: cells. The conditions noted are these: Homo sapiens, NCI-H929, 24 h, read-out: H929 viability EC50.

As for `CCNC(=O)N1CC2(C1)C(C(=O)Nc1cc(-c3ccc4ncn(Cc5cccc(F)c5)c4c3)c(Cl)cn1)CCS2(=O)=O` (stereo not shown) [Example 197, N^8-(5-chloro-4-(1-(3-fluorobenzyl)-1H-benzo[d]imidazol-6-yl)pyridin-2-yl)-N^2-ethyl-5-thia-2-azaspiro[3.4]octane-2,8-dicarboxamide 5,5-dioxide], the EC50 worked out at 4000 nM.

Turning to `NC(=O)NC(=O)/C=C/C(=O)Nc1cc(-c2ccc3ncn(Cc4cccc(F)c4)c3c2)c(Cl)cn1` [Example 206, (2E)-N-carbamoyl-N′-{5-chloro-4-[1-(3-fluorobenzyl)-1H-benzimidazol-6-yl]pyridin-2-yl}but-2-enediamide], the EC50 came to 2500 nM.

With `NC(=O)C1(C(=O)Nc2cc(-c3ccc4ncn(Cc5cccc(F)c5)c4c3)c(Cl)cn2)CC1` [Example 207, N-{5-chloro-4-[1-(3-fluorobenzyl)-1H-benzimidazol-6-yl]pyridin-2-yl}cyclopropane-1,1-dicarboxamide], the half-maximal effective concentration (EC50) is 1100 nM. `O=C1NC2CC(C(=O)Nc3cc(-c4ccc5ncn(CC6CCOCC6)c5c4)c(Cl)cn3)CC2O1` (stereo not shown) [Example 211, N-{5-chloro-4-[1-(tetrahydro-2H-pyran-4-ylmethyl)-1H-benzimidazol-6-yl]pyridin-2-yl}-2-oxohexahydro-2H-cyclopenta[d][1,3]oxazole-5-carboxamide]: the EC50 is 800 nM. As to `O=C(Nc1cc(-c2cnc3ncn(Cc4cccc(F)c4)c3n2)c(Cl)cn1)[C@@H]1CCCNC1` [Example 218, (3R)—N-{5-chloro-4-[1-(3-fluorobenzyl)-1H-imidazo[4,5-b]pyrazin-6-yl]pyridin-2-yl}piperidine-3-carboxamide], the EC50 turned out to be 190 nM.

As to `O=C(Nc1cc(-c2ccc3c(c2)N(CC(=O)N2CCOCC2)CC3)c(Cl)cn1)C1CCCNC1` (stereo not shown) [Example 220, N-(5-chloro-4-{1-[2-(morpholin-4-yl)-2-oxoethyl]-2,3-dihydro-1H-indol-6-yl}pyridin-2-yl)piperidine-3-carboxamide], the 50% effective concentration (EC50) is 2300 nM. To `N#Cc1cn(CC2CCOCC2)c2cc(-c3cc(NC(=O)[C@@H]4CCCNC4)ncc3Cl)cnc12` [Example 222, (3R)—N-{5-chloro-4-[3-cyano-1-(tetrahydro-2H-pyran-4-ylmethyl)-1H-pyrrolo[3,2-b]pyridin-6-yl]pyridin-2-yl}piperidine-3-carboxamide] belongs above 10000 nM; to `N#CC1(Cn2cnc3ccc(-c4cc(NCCO)ncc4Cl)cc32)CCOCC1` [Example 223, 4-[(6-{5-chloro-2-[(2-hydroxyethyl)amino]pyridin-4-yl}-1H-benzimidazol-1-yl)methyl]tetrahydro-2H-pyran-4-carbonitrile], 6000 nM.

With `Fc1cccc(Cn2cnc3ccc(-c4cc(N[C@H]5CC[C@H](NCc6cccnc6)CC5)ncc4Cl)cc32)c1` [Example 226, trans-N-{5-chloro-4-[1-(3-fluorobenzyl)-1H-benzimidazol-6-yl]pyridin-2-yl}-N′-(pyridin-3-ylmethyl)cyclohexane-1,4-diamine], the concentration giving a half-maximal response (EC50) was found to be 180 nM. The value for `Fc1cccc(Cn2cnc3ccc(-c4cc(N[C@H]5CC[C@H](NCc6ccc7c(c6)OCO7)CC5)ncc4Cl)cc32)c1` [Example 228, trans-N-(1,3-benzodioxol-5-ylmethyl)-N′-{5-chloro-4-[1-(3-fluorobenzyl)-1H-benzimidazol-6-yl]pyridin-2-yl}cyclohexane-1,4-diamine] was 380 nM. The value for `Fc1cccc(Cn2cnc3ccc(-c4cc(N[C@H]5CC[C@H](NCc6nccs6)CC5)ncc4Cl)cc32)c1` [Example 229, trans-N-{5-chloro-4-[1-(3-fluorobenzyl)-1H-benzimidazol-6-yl]pyridin-2-yl}-N′-(1,3-thiazol-2-ylmethyl)cyclohexane-1,4-diamine] was 160 nM; that for `Fc1cccc(Cn2cnc3ccc(-c4cc(N[C@H]5CC[C@H](NCCN6CCOCC6)CC5)ncc4Cl)cc32)c1` [Example 231, trans-N-{5-chloro-4-[1-(3-fluorobenzyl)-1H-benzimidazol-6-yl]pyridin-2-yl}-N′-[2-(morpholin-4-yl)ethyl]cyclohexane-1,4-diamine] was 140 nM. For `CC(C)(CN[C@H]1CC[C@H](Nc2cc(-c3ccc4ncn(Cc5cccc(F)c5)c4c3)c(Cl)cn2)CC1)N1CCOCC1` [Example 232, trans-N-{5-chloro-4-[1-(3-fluorobenzyl)-1H-benzimidazol-6-yl]pyridin-2-yl}-N′-[2-methyl-2-(morpholin-4-yl)propyl]cyclohexane-1,4-diamine], the EC50 was found to be 190 nM. The value for `Fc1cccc(Cn2cnc3ccc(-c4cc(N[C@H]5CC[C@H](NCC6CC6)CC5)ncc4Cl)cc32)c1` [Example 235, trans-N-{5-chloro-4-[1-(3-fluorobenzyl)-1H-benzimidazol-6-yl]pyridin-2-yl}-N′-(cyclopropylmethyl)cyclohexane-1,4-diamine] was 150 nM; that for `COCC(COC)N[C@H]1CC[C@H](Nc2cc(-c3ccc4ncn(Cc5cccc(F)c5)c4c3)c(Cl)cn2)CC1` [Example 238, trans-N-{5-chloro-4-[1-(3-fluorobenzyl)-1H-benzimidazol-6-yl]pyridin-2-yl}-N-(1,3-dimethoxypropan-2-yl)cyclohexane-1,4-diamine] was 110 nM. The value for `Fc1cccc(Cn2cnc3ccc(-c4cc(N[C@H]5CC[C@H](NCCOc6ccccc6)CC5)ncc4Cl)cc32)c1` [Example 239, trans-N-{5-chloro-4-[1-(3-fluorobenzyl)-1H-benzimidazol-6-yl]pyridin-2-yl}-N′-(2-phenoxyethyl)cyclohexane-1,4-diamine] was 230 nM; that for `Fc1cccc(Cn2cnc3ccc(-c4cc(N[C@H]5CC[C@H](NCCCOCc6ccccc6)CC5)ncc4Cl)cc32)c1` [Example 240, trans-N-[3-(benzyloxy)propyl]-N′-{5-chloro-4-[1-(3-fluorobenzyl)-1H-benzimidazol-6-yl]pyridin-2-yl}cyclohexane-1,4-diamine] was 480 nM; that for `O=C(Nc1cc(-c2cnc3nnn(Cc4cccc(F)c4)c3n2)c(Cl)cn1)[C@@H]1CCCNC1` [Example 247, (3R)—N-{5-chloro-4-[1-(3-fluorobenzyl)-1H-[1,2,3]triazolo[4,5-b]pyrazin-6-yl]pyridin-2-yl}piperidine-3-carboxamide] was 1500 nM.

With `O=C(Nc1cc(-c2ccc3nnn(CC4CCOCC4)c3c2)c(Cl)cn1)[C@@H]1CCCNC1` [Example 248, (3R)—N-{5-chloro-4-[1-(tetrahydro-2H-pyran-4-ylmethyl)-1H-benzotriazol-6-yl]pyridin-2-yl}piperidine-3-carboxamide], the EC50 is 2100 nM.

In the case of `Fc1cccc(Cn2ccc3ncc(-c4cc(NC5CC6(CCNC6)C5)ncc4Cl)cc32)c1` (stereo not shown) [Example 249, N-{5-chloro-4-[1-(3-fluorobenzyl)-1H-pyrrolo[3,2-b]pyridin-6-yl]pyridin-2-yl}-6-azaspiro[3.4]octan-2-amine], the 50% effective concentration (EC50) is 950 nM. To `NC1CCCC(Nc2cc(-c3ccc4ncn(Cc5cccc(F)c5)c4c3)c(Cl)cn2)C1` (stereo not shown) [Example 250, N-{5-chloro-4-[1-(3-fluorobenzyl)-1H-benzimidazol-6-yl]pyridin-2-yl}cyclohexane-1,3-diamine] belongs 720 nM; to `O=C(Nc1cc(-c2ccc3ncn(CC4CCOCC4)c3c2)c(Cl)cn1)c1cn[nH]c1` [Example 266, N-{5-chloro-4-[1-(tetrahydro-2H-pyran-4-ylmethyl)-1H-benzimidazol-6-yl]pyridin-2-yl}-1H-pyrazole-4-carboxamide], 350 nM.

As a reminder, the EC50 is the concentration giving half of the maximal effect.
